# Measurements as given in the supplement of paper PMC4604168 (melanoma cell lines).
# Some of the results follow. Single values are uncertain, as repeats are few or missing.
# Tested on: IST-MEL1
# Assay: cell count relative to DMSO control; melanoma cells; higher = more viable cells
# Conditions: library dose: low library concentration; 72 h
# 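Also: cell number obtained by counting DAPI-stained nuclei in high-throughput microscope images with image analysis software, screen run in 1,536-well plates.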
row,Compound,cell count
1,"C[C@@H](Oc1cc(-c2cnn(C3CCNCC3)c2)cnc1N)c1c(Cl)ccc(F)c1Cl [Crizotinib] + CO[C@H]1C[C@@H]2CC[C@@H](C)[C@@](O)(O2)C(=O)C(=O)N2CCCC[C@H]2C(=O)O[C@H]([C@H](C)C[C@@H]2CC[C@@H](OCCO)[C@H](OC)C2)CC(=O)[C@H](C)/C=C(\C)[C@@H](O)[C@@H](OC)C(=O)[C@H](C)C[C@H](C)/C=C/C=C/C=C/1C [everolimus] (first compound 0.2 µM, partner dose 0.02 µM)",70.7%
2,"CN1CCN(c2ccc3nc(-c4c(N)c5c(F)cccc5[nH]c4=O)[nH]c3c2)CC1 [Dovitinib] + CC(=O)c1c(C)c2cnc(Nc3ccc(N4CCNCC4)cn3)nc2n(C2CCCC2)c1=O [palbociclib] (first compound 0.1 µM, partner dose 0.04 µM)",94%
3,"CS(=O)(=O)CCNCc1ccc(-c2ccc3ncnc(Nc4ccc(OCc5cccc(F)c5)c(Cl)c4)c3c2)o1 [lapatinib] + C#Cc1cccc(Nc2ncnc3cc(OCCOC)c(OCCOC)cc23)c1 [erlotinib] (first compound 0.8 µM, partner dose 0.8 µM)",94.6%
4,"C[C@@H](Oc1cc(-c2cnn(C3CCNCC3)c2)cnc1N)c1c(Cl)ccc(F)c1Cl [Crizotinib] + CN1CCN(c2ccc3nc(-c4c(N)c5c(F)cccc5[nH]c4=O)[nH]c3c2)CC1 [Dovitinib] (first compound 0.2 µM, partner dose 0.1 µM)",98.7%
5,"CS(=O)(=O)CCNCc1ccc(-c2ccc3ncnc(Nc4ccc(OCc5cccc(F)c5)c(Cl)c4)c3c2)o1 [lapatinib] + OCc1c[nH]c2ccccc12 [Indole-3-carbinol] (first compound 0.8 µM, partner dose 0.8 µM)",90.2%
6,"CNC(=O)c1cc(Oc2ccc(NC(=O)Nc3ccc(Cl)c(C(F)(F)F)c3)cc2)ccn1 [sorafenib] + C#Cc1cccc(Nc2ncnc3cc(OCCOC)c(OCCOC)cc23)c1 [erlotinib] (first compound 0.4 µM, partner dose 0.8 µM)",101%
7,"C=CCNC1=C2C[C@@H](C)C[C@H](OC)[C@H](O)[C@@H](C)/C=C(\C)[C@H](OC(N)=O)[C@@H](OC)/C=C\C=C(/C)C(=O)NC(=CC1=O)C2=O [Tanespimycin] + Cn1c(Nc2ccc(C(F)(F)F)cc2)nc2cc(Oc3ccnc(-c4ncc(C(F)(F)F)[nH]4)c3)ccc21 [CHIR265] (first compound 0.002 µM, partner dose 0.08 µM)",94.9%
8,"CN1CCN(c2ccc3nc(-c4c(N)c5c(F)cccc5[nH]c4=O)[nH]c3c2)CC1 [Dovitinib] + OCc1c[nH]c2ccccc12 [Indole-3-carbinol] (first compound 0.1 µM, partner dose 0.8 µM)",99.5%
9,"CNC(=O)c1cc(Oc2ccc(NC(=O)Nc3ccc(Cl)c(C(F)(F)F)c3)cc2)ccn1 [sorafenib] + CS(=O)(=O)CCNCc1ccc(-c2ccc3ncnc(Nc4ccc(OCc5cccc(F)c5)c(Cl)c4)c3c2)o1 [lapatinib] (first compound 0.4 µM, partner dose 0.8 µM)",97.6%
10,"CN1CCN(c2ccc3nc(-c4c(N)c5c(F)cccc5[nH]c4=O)[nH]c3c2)CC1 [Dovitinib] + CS(=O)(=O)CCNCc1ccc(-c2ccc3ncnc(Nc4ccc(OCc5cccc(F)c5)c(Cl)c4)c3c2)o1 [lapatinib] (first compound 0.1 µM, partner dose 0.8 µM)",93.2%
11,"CNC(=O)c1cc(Oc2ccc(NC(=O)Nc3ccc(Cl)c(C(F)(F)F)c3)cc2)ccn1 [sorafenib] + Nc1nc(F)nc2c1ncn2[C@@H]1O[C@H](CO)[C@@H](O)[C@@H]1O [fludarabine] (first compound 0.4 µM, partner dose 0.2 µM)",96.2%
12,"CNC(=O)c1cc(Oc2ccc(NC(=O)Nc3ccc(Cl)c(C(F)(F)F)c3)cc2)ccn1 [sorafenib] + COc1ccc(Cl)c(Nc2nc3ccccc3nc2NS(=O)(=O)c2cccc(NC(=O)C(C)(C)N)c2)c1 [XL147] (first compound 0.4 µM, partner dose 0.8 µM)",88.9%
13,"CS(=O)(=O)CCNCc1ccc(-c2ccc3ncnc(Nc4ccc(OCc5cccc(F)c5)c(Cl)c4)c3c2)o1 [lapatinib] + C=C(c1ccc(C(=O)O)cc1)c1cc2c(cc1C)C(C)(C)CCC2(C)C [Bexarotene] (first compound 0.8 µM, partner dose 2 µM)",105%
